# Test results published in PubChem BioAssay AID1240 (Sanford-Burnham Center for Chemical Genomics, 2008).
# Out of some 50,000 compounds screened, about 800 (1.6%) showed an effect of 50% or more. The list shows a part of the results.
# Target: Bcl-2-like protein 10 (Homo sapiens) (UniProt Q9HD36)
# Experiment: TR3 peptide-Bcl-B binding displacers, biochemical primary FP assay, phenotype converters (AID 1240);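 note: 0% = Bcl-B with tracer peptide and DMSO and 100% = tracer peptide lacking Bcl-B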
# Settings: GST-Bcl-B / FITC-TR3 peptide fluorescence polarization; stronger effect = higher value; compound at 3.75 mg/L
# UniProt Q9HD36, sequence (Q9HD36 whole entry, looked up): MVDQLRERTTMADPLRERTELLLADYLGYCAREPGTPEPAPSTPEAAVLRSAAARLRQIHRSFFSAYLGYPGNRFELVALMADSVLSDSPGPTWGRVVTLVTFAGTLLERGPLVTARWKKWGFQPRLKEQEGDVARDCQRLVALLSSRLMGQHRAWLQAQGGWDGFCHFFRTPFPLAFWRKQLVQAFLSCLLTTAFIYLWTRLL
row,SMILES,displacement [%]
1,Cc1cc([N+](=O)[O-])ccc1NC(=S)NC(=O)c1ccco1,8.2
2,COCCNC(=O)c1nn2c(C(F)(F)F)cc(-c3cccs3)nc2c1Cl,3.8
3,COc1ccc(NC(=O)c2cc3ccc4c5ccccc5[nH]c4c3cc2O)cc1,1.7
4,C#CCn1cc(/C=C2\C(=O)NC(=O)N(c3ccc(Br)c(C)c3)C2=O)c2ccccc21,6.2
5,NC(=O)c1cccc(N=Cc2cc([N+](=O)[O-])ccc2O)c1,-3.4
6,COC(=O)c1ccc(/C=N\N2CCN(c3ccccc3OC)CC2)cc1,-6
7,O=C(/C=C/c1ccccc1F)c1c(-c2ccccc2)c2ccccc2[nH]c1=O,-17.1
8,COc1ccc(/C=N\N2CCN(c3ccccc3)CC2)c(OC)c1OC,-0.3
9,COC(=O)c1ccccc1N(Cc1ccccc1)S(=O)(=O)c1ccccc1,12.3
10,CSc1ccc(/C=C/C(=O)c2ccc(NC(=O)c3ccco3)cc2)cc1,-3.6
11,CCN(CC)S(=O)(=O)c1ccc2c3c(cccc13)C(=O)N2,1.4
12,Cc1ccc(-n2[nH]c(C)c(C=Nc3ccccc3C(=O)O)c2=O)cc1C,17.4
13,O=CNc1nc(C2COc3ccccc3O2)cs1 (stereo not given),-4.2
14,Cc1ccc(-c2nc3s/c(=C/c4ccc(C(C)C)cc4)c(=O)n3n2)cc1,8.5
15,COc1ccc(/C=C2\C(=O)N(c3nc(-c4ccc(C)cc4)cs3)N=C2C)cc1,12.1
16,COc1ccc(NC(=O)c2ccc(I)cc2)cc1Cl,13.6
17,CCCN1C(=O)c2ccccc2NC1c1ccc(OC)c(CSc2ccccn2)c1 (stereo not given),14.2
18,CC/C(CNC(=O)c1ccccc1)=N/NC(=O)CN(CC)c1ccccc1,-12.8
19,CN1C(=O)C(=Cc2ccc(N(C)C)c(Br)c2)C(=O)N(C)C1=O,10.2
20,CC(C)c1nc2sc3c(c2c(=O)n1N)CC(C)(C)OC3,4.9
21,CCN(CC)c1ccc(/C=C2/C(=O)NN(c3ccc(Br)cc3)C2=O)c(O)c1,38.1
22,COc1ccc(C2CC(=O)C3=C(C2)Nc2ccccc2NC3c2ccc(OC(C)=O)c(OC)c2)cc1 (stereo not given),-4.1

row,SMILES,displacement [%]
1,COc1cccc2cc(-c3nc(-c4ccccc4)cs3)c(=O)oc12,7.8
2,Cc1nc2c([nH]1)c(=O)oc1ccccc12,-7.3
3,COc1ccc(-c2c(C#N)c(N)nc(SCC(=O)c3ccc(O)c(O)c3)c2C#N)cc1,-39.7
4,NC(=O)N/N=C(/c1ccc2c(c1)OCCO2)C1CC1,0.5
5,CC1CCCCC1N1CCN(Cc2ccncc2)CC1 (stereo not given),-7.2
6,Cc1cc(C(=O)N2CCN(c3cccc(Cl)c3)CC2)ccc1[N+](=O)[O-],13.2
7,O=C(Cn1cncn1)c1ccc(F)c(F)c1,16.9
8,COc1cc(Oc2ccc(C(C)C)cc2C)nc(N)n1,27.6
9,CSCCOC(=O)C1=C(C)NC(=O)NC1c1cccc(Cl)c1 (stereo not given),7.3
10,CC(C)COc1ccc(C(=O)Nc2cccnc2)cc1,2.7
11,Cc1cc(OCC(=O)NC2CCCC2)ccc1Br,1.8
12,COC(=O)C1=C(C)NC2=C(C(=O)c3ccccc32)C1c1ccccc1OCc1ccc(Cl)cc1Cl (stereo not given),-0.4
13,CN(C)c1ncnc2c1ncn2[C@@H]1OC(CO)C(O)C1O (stereo not given in full),-10.1
14,COc1ccc(C(=O)Nc2nc(C)cs2)cc1,3.5
15,COc1ccc(C2CC(=O)Nc3c2cc(Br)c2ccccc32)c(OC)c1 (stereo not given),8.5
16,CCOCCOC(=O)C1=C(C)NC2=C(C(=O)CCC2)C1c1ccc(I)cc1 (stereo not given),2.1
17,Cc1cccc(C(=O)O/N=C(\N)c2ccc(Br)cc2)c1,-0.6
18,CCOc1ccc2c(c1)/C(=C1/SC(C(C)=O)=C(c3ccccc3)S1)C(=S)C(C)(C)N2,17
19,CC(=O)NC1=NC(=O)/C(=C\c2cccs2)S1,109
20,O=[N+]([O-])c1ccc(NCCNC(=S)Nc2ccc(Cl)cc2)nc1,-3.1
21,COc1ccc(S(=O)(=O)N(CC(=O)NCc2ccc(Cl)cc2)c2cc(C)cc(C)c2)cc1OC,-1.6
22,N/C(=N\OC(=O)c1ccc(F)cc1)c1ccc(Br)cc1,-18.5

row,SMILES,displacement [%]
1,CC(C)(Cc1ccc(O)cc1)NC(=O)Cc1ccccc1,9.2
2,CC1=C(C(=O)Nc2ccccc2)C(c2ccncc2)C(C#N)=C(SCC(N)=O)N1 (stereo not given),-3.8
3,Cc1cc(NC(=O)C(c2ccccc2)c2ccccc2)no1,14.9
4,COc1cc(C2NC(=S)NC(C)=C2C(=O)Nc2cccc(C)c2)ccc1O (stereo not given),27.6
5,O=C1CC(=O)NC(SCC(=O)Nc2nc3ccccc3s2)=N1,12.7
6,CCOC(=O)c1ccc2[nH]c3c(c2c1)CCCC3=O,5.4
7,O=C(CN1C(=O)/C(=C/c2cccc(Br)c2)SC1=S)NC1=NCCS1,10.5
8,Cc1cccc(OCC(=O)N/N=C/c2ccc([N+](=O)[O-])s2)c1,12.6
9,CCCOc1cccc(C(=O)Nc2cccc(NC(=O)c3cccc(Cl)c3)c2)c1,-5.6
10,N=c1nc(N)nc2n1NC(c1ccc(Cl)cc1)=CS2,-1
11,CC12CN3CCN(C1)CC(C)(C3)C2NC(=S)Nc1ccccc1 (stereo not given),7.1
12,O=C(CCCN1C(=O)c2cccc3cccc(c23)C1=O)NC1CCS(=O)(=O)C1 (stereo not given),13.6
13,CCOC(=O)NC(NCc1ccco1)(C(F)(F)F)C(F)(F)F,-0.9
14,CC1(C(=O)O)CCC(C(=O)Nc2cccc(F)c2)C1(C)C (stereo not given),5.8
15,O=C(NN1CCOCC1)c1cc2ccccc2oc1=O,5.7
16,Cc1ccc2nc(-c3ccc(NC(=O)c4ccc(S(=O)(=O)N5CCCC5)cc4)cc3)sc2c1,-1.5
17,O=C(O)c1c(Br)c(Br)c(Br)c(Br)c1C(=O)N1CCOCC1,-2.3
18,Cc1ccc(S(=O)(=O)ON=C2C=CC(=O)C=C2)cc1,10.5
19,C=CCNC(=O)CCCOc1ccc(Cl)cc1Cl,3.8
20,CC1(C)CC(NC(=S)Nc2ccc(F)cc2)CC(C)(C)N1,10.3
21,COc1ccc(OC(C)C(=O)NCCc2ccccc2)cc1 (stereo not given),11.9
22,CCCCOC(=O)c1ccc(NC(=O)c2ccc(-c3cccc([N+](=O)[O-])c3)o2)cc1,11.8

row,SMILES,displacement [%]
1,Cc1ccccc1Nc1nc(-c2cc3ccccc3oc2=O)cs1,11.2
2,CC(C)c1ccc(/C=C/C(=O)NCc2cccnc2)cc1,-10.4
3,Cc1ccc(-c2c(C)n([O-])c3c([n+]2=O)CCC3)cc1,-10.4
4,CC(C)(C)c1ccc(C(=O)Nc2ncc(Cc3ccc(F)cc3)s2)cc1,-24.8
5,Cc1ccc(Cc2cnc(NC(=O)c3ccc(Cl)cc3)s2)cc1,15.2
6,CCOC(=O)C1=C(O)/C(=C/c2ccc(O)c(OC)c2)SC1=Nc1cccc(Cl)c1,-6.4
7,Cc1cc(NC(=O)c2ccc(C)c(C)c2)no1,6.7
8,Clc1ccc(-c2ccc(/C=N/Nc3nncc(-c4ccccc4)n3)o2)cc1,-2.3
9,CCOC(=O)C1=C(O)/C(=C/c2ccc(N(CC)CC)cc2)SC1=Nc1ccc(OC)cc1,-11.5
10,CC(=O)Nc1ccccc1NS(=O)(=O)c1ccccc1,-1.9
11,CC(=O)Nc1ccccc1NC(=O)c1cccc(I)c1,6.4
12,Cc1ccc(-c2ccccc2)n1-c1ccc(O)c(C(=O)O)c1,20.4
13,Cc1nc2cc(N=Cc3cc(C(C)(C)C)c(O)c(C(C)(C)C)c3)ccc2n1C,0.7
14,O=[N+]([O-])c1ccc(OC/C=C2\Oc3c(Cl)cc(Cl)cc3C2N2CCOCC2)cc1 (stereo not given),-1.2
15,C/C(=N\NS(=O)(=O)c1ccc(Cl)cc1)C1CC2CCC1C2 (stereo not given),9.5
16,CCOc1ccc(NC(=O)C(C)Oc2ccc(OC)cc2)cc1 (stereo not given),-3.9
17,CCOc1ccccc1NC(=O)CSc1nc2ccccc2o1,-10.1
18,COc1ccccc1N1C(=O)c2cccc3c(N4CCCC4)ccc(c23)C1=O,102
19,O=C(c1ccc(Cl)c([N+](=O)[O-])c1)N1CCc2ccccc2C1,4.1
20,CC(=O)c1cccc(Nc2nc(-c3cccs3)cs2)c1,-9.1
21,Cc1csc(NC(=O)c2cc(-c3cccc(Br)c3)nc3ccccc23)n1,-6.5
22,CCc1ccc(N2C(=O)CSC2c2ccc(Cl)cc2Cl)cc1 (stereo not given),9.8

row,SMILES,displacement [%]
1,CCOC(=O)C(=Cc1ccc(-c2cccc(Cl)c2Cl)o1)C(=O)OCC,-7.2
2,CCOC(=O)c1ccc(NC(=O)CN(c2ccc(OC)cc2)S(C)(=O)=O)cc1,-10.2
3,O=[N+]([O-])c1cccc(/C=N/Nc2c(Cl)cc(Cl)cc2Cl)c1,8.9
4,O=C(NCCN1CCOCC1)c1cc(-c2cccc(Br)c2)nc2ccccc12,-7.6
5,COc1cc2c(cc1OC)C(c1ccc(Br)cc1)N(C1CC(=O)N(c3ccccc3)C1=O)CC2 (stereo not given),10.4
6,CC1(C)Cc2ccccc2-c2c[nH]c(=O)n21,0.8
7,CC(=O)CC(=O)Nc1ccc(C(C)C)cc1,4
8,O=C(O)COc1c(Cl)cc(/C=C2\C(=O)NC(=O)N(c3ccccc3)C2=O)cc1Cl,-2.5
9,CCOC(=O)c1c(-c2ccccc2)csc1NC(=O)c1sc2cc(F)ccc2c1Cl,-2.4
10,O=C(NCc1cccs1)c1nc2nc(-c3ccccc3)cc(C(F)(F)F)n2n1,3
11,COc1ccc(C(=O)Nc2cc3nn(-c4ccc(OC)cc4)nc3cc2C)cc1,2.2
12,COc1cccc(C(=O)N2CCN(C(=O)COc3ccccc3)CC2)c1,16.5
13,O=C(/C=C/c1ccc(NC(=O)c2cccs2)cc1)c1ccco1,11.8
14,O=C(NC(=S)Nc1ccc(NC(=O)c2ccco2)cc1)c1ccco1,10.7
15,Cc1ccccc1C(=O)NNC(=O)Cc1ccccc1,-3.5
16,Cc1cc([N+](=O)[O-])ccc1NC(=O)c1ccccc1,-2.8
17,Cc1ccc(C(=O)O/N=C(\N)Cc2cccc3ccccc23)cc1[N+](=O)[O-],42.2
18,Cc1cc2c(cc1C)-c1nnc(-c3ccco3)n1C(C)(C)C2,5.4
19,O=C1CC(c2ccccc2)CC2=C1C(c1cccc(Cl)c1Cl)Nc1ccccc1N2 (stereo not given),-6
20,CCOC(=O)C1=C(C)N=C2SCC(=O)N2C1c1ccc(F)cc1 (stereo not given),22
21,CC(C)(C)C1CCc2c(sc(NC(=O)C3CCCCC3C(=O)O)c2C(N)=O)C1 (stereo not given),-7.8
22,CCOc1ccc(N(CC(=O)Nc2ccc(Cl)cc2)S(=O)(=O)c2ccc(SC)cc2)cc1,2.2
